Results reported in PubChem BioAssay AID360 (National Center for Advancing Translational Sciences (NCATS), 2006).
In all, about 48,000 compounds went through this assay and about 550 (1.1%) were called active. Roughly 4% stayed inconclusive and do not appear here. Rule as the data show it: active = potency below about 15 µM; inconclusive = mostly about 16 µM to 33 µM; inactive = weaker than that. The list shows a part of the results.

Molecular target: Lysosomal acid glucosylceramidase (Homo sapiens) (UniProt P04062)
Sequence of UniProt P04062 (P04062 whole entry, looked up): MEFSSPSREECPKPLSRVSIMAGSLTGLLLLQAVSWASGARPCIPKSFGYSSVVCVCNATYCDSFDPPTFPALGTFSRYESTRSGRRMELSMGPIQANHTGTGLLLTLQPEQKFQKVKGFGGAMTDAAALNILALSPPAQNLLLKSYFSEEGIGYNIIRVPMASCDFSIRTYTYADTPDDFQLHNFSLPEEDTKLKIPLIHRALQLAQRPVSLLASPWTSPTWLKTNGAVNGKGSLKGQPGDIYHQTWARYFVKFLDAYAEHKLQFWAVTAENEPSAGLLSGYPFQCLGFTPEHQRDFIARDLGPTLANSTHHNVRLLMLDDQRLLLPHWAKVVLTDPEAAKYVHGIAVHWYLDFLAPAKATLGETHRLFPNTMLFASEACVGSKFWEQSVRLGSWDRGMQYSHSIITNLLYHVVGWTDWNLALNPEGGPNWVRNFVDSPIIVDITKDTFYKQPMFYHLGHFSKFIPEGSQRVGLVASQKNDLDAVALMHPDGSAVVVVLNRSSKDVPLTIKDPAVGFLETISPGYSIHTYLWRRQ
Experiment: Glucocerebrosidase;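 also: the screen sought inhibitors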
Settings: purified enzyme, resorufin glucoside fluorescence (screen aimed at inhibitors), 20 min; series mostly up to 77 µM
Outline: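 Compounds titrated against 0.2 nM normal enzyme, 30 uM resorufin beta-D-glucopyranoside substrate, citrate/phosphate buffer with taurocholate and tween-20, pH 5.9. Reaction ran 20 min at room temperature; fluorescence (Ex 548/Em 600) gave AC50.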
Potency is read from the fitted curve at half-maximal effect.

Potency, inactive:
Cc1cc(C)c2c(CC(=O)N(CCC#N)Cc3cccnc3)coc2c1 > 76.9 µM, CCn1cc(C(=O)NCCOC)c(=O)c2ccc(C)nc21 > 76.9 µM, CNc1oc(-c2cccc3ccccc23)nc1C#N > 76.9 µM, CC(=O)Nc1ccc2c(c1)CCCN2C(=O)c1ccccc1 > 76.9 µM, Cc1cc(C)c2c(c1)cc(C)c1nnc(SCC(=O)Nc3cc(C)on3)n12 > 76.9 µM, CC(C)COC(=O)c1nnsc1NC(=O)Nc1ccccc1 > 76.9 µM, Clc1ccc(C(c2nnnn2C2CCCC2)N2CCN(Cc3ccncc3)CC2)cc1 (stereo unspecified) > 76.9 µM, Cc1cc(Nc2ccc(C)c(F)c2)n2ncnc2n1 > 76.9 µM, CC(C)(C)NS(=O)(=O)c1ccc(OCC(=O)Nc2ccc3c(c2)OCCO3)cc1 > 76.9 µM, CC(C)(C)c1ccc(S(=O)(=O)n2c(CN3CCOCC3)nc3ccccc32)cc1 > 76.9 µM, O=c1c2cc(Cl)ccc2[nH]c(=S)n1Cc1ccco1 > 76.9 µM, COc1cc(C)c(C(C)C)cc1S(=O)(=O)N1CCOCC1 > 76.9 µM, O=C(CCN1C(=O)C2C3C=CC(C3)C2C1=O)Nc1ccc2c(c1)OCO2 (stereo unspecified) > 76.9 µM, COc1ccc(S(=O)(=O)Nc2ccc(O)c3ccccc23)cc1 > 76.9 µM, CC1Cc2ccccc2N1C(=O)CSc1nnc(NC(=O)Cc2cccs2)s1 (stereo unspecified) > 76.9 µM, CCC(=O)N1CCc2cc(Br)cc(S(=O)(=O)CCC(=O)NCc3ccco3)c21 > 76.9 µM, CC(C)OCCCn1c(-c2ccco2)nc2nc3ccccc3nc21 > 76.9 µM, CCNc1nc(N)nc(Oc2ccc(C(=O)OC)cc2)n1 > 76.9 µM, C[C@@H](Nc1nc(-c2ccccc2)nc2c1oc1ccccc12)C(=O)O > 76.9 µM, O=C(CSc1ccccc1Cl)c1ccco1 > 76.9 µM, c1coc(CSCc2cn3cccnc3n2)c1 > 76.9 µM, CCOC(=O)C1CCN(C(=O)Nc2ccc(OC)c(OC)c2)CC1 > 76.9 µM, COc1ccc2c(c1)cc1n2CCN=C1N, COc1ccccc1CNc1n[nH]c(NCc2ccccc2OC)n1 > 76.9 µM, CC(=O)c1ccc(OCC(C)C)c(CN2CCCCC2)c1 > 76.9 µM, O=C(CC1SC2=NCCN2C1=O)Nc1ccc(Br)cc1 (stereo unspecified) > 76.9 µM, O=C(Cn1cc(C(F)(F)F)ccc1=O)N1CCN(S(=O)(=O)c2ccc(Cl)cc2)CC1 > 76.9 µM, N=c1c2c(-c3ccccc3)c(-c3ccccc3)oc2ncn1CCCN1CCOCC1, O=S(=O)(NCCNS(=O)(=O)c1cccs1)c1cccs1 > 76.9 µM, CCCCNC(=O)c1cn(C)c2ccc(S(=O)(=O)N3CCOCC3)cc2c1=O > 76.9 µM, Cn1c(SCc2ccccn2)nnc1-c1ccncc1 > 76.9 µM, CCCCC(c1nnnn1CS(=O)(=O)c1ccc(C)cc1)N1CCN(c2ccccc2)CC1 (stereo unspecified) > 76.9 µM, Cc1ccc(NC(=O)CSc2nnc(CSc3nc(C)cc(C)n3)n2Cc2ccco2)c(C)c1 > 76.9 µM, CCOC(=O)c1ccc2c(c1)N(CC(=O)N1CCCC1)C(=O)C(C)(C)O2 > 76.9 µM, O=C(NCc1ccc2c(c1)OCO2)c1cccc(S(=O)(=O)N2CCOCC2)c1 > 76.9 µM, CC1CCc2nc(NC(=O)CN3CCN(Cc4ccc5c(c4)OCO5)CC3)sc2C1 (stereo unspecified) > 76.9 µM, Cc1cc(C(=O)N(C2CCCCC2)C2CCCCC2)no1 > 76.9 µM, COc1ccc(C(=O)Nc2ccc(OC)c(OC)c2)cc1 > 76.9 µM, CCOc1ccc(C(=O)Nc2cc(C)on2)cc1OCC > 76.9 µM, O=C(N1CCOCC1)N1CCN(Cc2ccccc2)CC1 > 76.9 µM, CCCSc1nc2c(c(=O)[nH]c(=O)n2C)n1Cc1ccc(C)cc1 > 76.9 µM, Cc1ccc(C(=O)Nc2cnc3sc(C)nn3c2=O)cc1 > 76.9 µM, CCOC(=O)N1CCC(N2C(=O)c3ccc(C(=O)O)cc3C2=O)CC1 > 76.9 µM, Cc1cc(C)c(C#N)c(SCC(=O)N2CCCCC2)n1 > 76.9 µM, Cc1cc(C)n(-c2ccc(C(=O)Oc3ccc4c(c3)OCO4)cc2)n1 > 76.9 µM, CN(Cc1nc(-c2cccnc2)no1)S(=O)(=O)c1ccc2ccccc2c1 > 76.9 µM, COc1ccc(C(=O)CN2CCN(c3ccc(F)cc3)CC2)cc1OC > 76.9 µM, COc1cccc(C(=O)N2CCN(C(=O)c3cccs3)CC2)c1OC > 76.9 µM, Cc1ccccc1Nc1nc(N)nc(COC(=O)CCS(=O)(=O)c2ccccc2)n1 > 15.4 µM, O=C(c1cc2ncc(Br)cn2n1)N1CCN(C(=O)c2ccco2)CC1 > 76.9 µM, COc1cc2c(cc1OC)CN(C(=O)COc1ccc(C#N)cc1)CC2 > 76.9 µM, Cc1ccc2[nH]c(=O)c(C(c3nnnn3C(C)(C)C)N(Cc3ccco3)CC3CCCO3)cc2c1 (stereo unspecified) > 76.9 µM, O=C(CN1C(=O)c2ccccc2S1(=O)=O)N1CCc2ccccc2C1 > 76.9 µM, CCOC(=O)N1CCN(c2nc(-c3ccc(F)cc3)cs2)CC1 > 76.9 µM, CCOC(=O)CSc1nnc(N)s1 > 76.9 µM, Oc1ccc(CNc2ccccc2)c2cccnc12 > 76.9 µM, COc1cc(C(=O)OCC(=O)NCc2ccco2)cc(OC)c1OC > 76.9 µM, CCCNC(=O)C1CCN(c2nc(C)cc(C)n2)CC1 > 76.9 µM, COc1ccc(C(=O)n2nnc3ccccc32)cc1Br > 76.9 µM, Cc1cc2ncn(/N=C/c3cccnc3)c2cc1C > 76.9 µM, Cc1c(NC(=O)C23CC4CC(CC(C)(C4)C2)C3)c(=O)n(-c2ccccc2)n1C > 76.9 µM, Cc1ccc(C(c2nnnn2CC2CCCO2)N2CCN(C(=O)c3ccco3)CC2)cc1 (stereo unspecified) > 76.9 µM, COc1cccc(Oc2cn[nH]c2-c2ccc(OC)cc2O)c1 > 76.9 µM, COCc1cc(=O)[nH]c(/N=C(\N)Nc2ccc(C)cc2)n1 > 76.9 µM, COc1ccc(CNc2nc3c(c(C(F)(F)F)n2)CCCCC3)cc1 > 76.9 µM, O=C(O)C1C(c2ccccc2)C(C(=O)Oc2ccc(O)cc2)C1c1ccccc1 (stereo unspecified) > 76.9 µM, c1ccc(N2CCN(c3nc4cc5c(cc4s3)OCCO5)CC2)cc1 > 76.9 µM, CC1CN(c2oc(-c3ccco3)nc2S(=O)(=O)c2ccccc2)CC(C)O1 (stereo unspecified) > 76.9 µM, Cc1ccc(-n2nc(C)c3c(-c4cccs4)c(C#N)c(N)nc32)cc1 > 76.9 µM, COc1ccc(NC(=O)CN(C)S(=O)(=O)c2ccccc2)cc1OC > 76.9 µM, CCOc1ccc(NC(=O)C2CC(=O)N(c3cc(C)cc(C)c3)C2)cc1 (stereo unspecified) > 76.9 µM, CCn1c(SCC(=O)Nc2cc(C)on2)nc2sc(C)c(C)c2c1=O > 76.9 µM, Cc1ccc(S(=O)(=O)c2c(N)n(CC3CCOC3)c3nc4ccccc4nc23)cc1 (stereo unspecified) > 76.9 µM, O=C(O)CSC(NC(=O)c1cccnc1)(C(F)(F)F)C(F)(F)F > 76.9 µM, O=C(OCc1nnc(-c2ccc(Cl)cc2)o1)c1ccc(=O)n(Cc2ccccc2)n1 > 76.9 µM, CC1CCCC(C)N1Cc1cn2ccccc2n1 (stereo unspecified) > 76.9 µM, COc1ccc(S(=O)(=O)N2CCCC(C(=O)Nc3cccc(C(C)=O)c3)C2)cc1 (stereo unspecified) > 76.9 µM, Cc1ccc(-n2nc(-c3ccco3)cc2C(=O)NCc2cccnc2)cc1 > 76.9 µM, CC(C)(C)OC(=O)N1CCC[C@H]1c1nnc(SCc2ccccc2F)o1 > 76.9 µM, COCC(=O)Nc1nc2ccc(S(C)(=O)=O)cc2s1 > 76.9 µM, CSc1ccc(-c2c(C#N)c(N)nc3c2c(C)nn3-c2ccccc2)cc1 > 76.9 µM, Cc1nn(-c2cc(C)c3ccccc3n2)c2c1CCC2 > 76.9 µM, CCC(=O)c1ccc(OCCN2CCOCC2)cc1 > 76.9 µM, CCOc1nc(OCC)nc(N2CCC(C)CC2)n1 > 76.9 µM, Cc1[nH]c2ccc(-c3nnc(SCC(=O)N4CCCc5ccccc54)o3)cc2c1C > 76.9 µM, O=C(OCCNc1ncc(C(F)(F)F)cc1Cl)c1ccc(S(=O)(=O)N2CCOCC2)cc1 > 76.9 µM, N#CCCN1CCN(C(=S)c2ccc(-c3ccc(Cl)cc3)o2)CC1 > 76.9 µM, C=C(C)COc1ccc(-c2n[nH]c(C)c2-c2ccccc2)c(O)c1 > 76.9 µM, N#CCCN(C(=O)CN1C(=O)NC2(CCCC2)C1=O)c1ccccc1F > 76.9 µM, O=C1CCC(=O)c2oc3ccccc3c2N1 > 15.4 µM, O=C(Nc1cnn(Cc2ccc(F)cc2)c1)c1cnccn1 > 76.9 µM
